{
  "source": "the supplement of paper PMC3334620",
  "note": "Over roughly 33,000 sequences, “E-score (-0.5 to 0.5)” has its median near -0.017; the highest 2% begin near 0.3. The list shows a part of the results.",
  "data": [
    {"molecular_target": "T1, Sut1 (UniProt P53032)", "T1 sequence": "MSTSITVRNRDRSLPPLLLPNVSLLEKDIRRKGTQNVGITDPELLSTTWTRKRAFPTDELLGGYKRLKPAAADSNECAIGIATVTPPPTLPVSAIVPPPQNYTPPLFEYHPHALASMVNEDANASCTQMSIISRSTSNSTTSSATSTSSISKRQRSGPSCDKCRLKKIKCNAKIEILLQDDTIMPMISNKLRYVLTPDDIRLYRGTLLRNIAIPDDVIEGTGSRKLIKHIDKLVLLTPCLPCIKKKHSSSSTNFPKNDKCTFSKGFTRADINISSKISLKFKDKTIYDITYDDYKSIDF", "experiment": "PBM E-score (8-mer binding enrichment) (E-score (-0.5 to 0.5)); higher = stronger / more preferred TF binding; most listed sequences are background and not binding sites", "settings": "protein concentration: 200 nM; construct: GST-full length", "summary_of_the_method": "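Detection of bound protein used fluorescent anti-GST, with scans normalised by masliner. The proteins were GST-tagged yeast transcription factors applied at about 100-200 nM to universal all-10-mer Agilent arrays made double-stranded by primer extension. Each ungapped eight-base word, pooled with its reverse complement, was scored with an E-score from the Universal PBM Analysis Suite.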", "values": [
      {"sequence": "ACCCTTTA", "PBM E-score": 0.198},
      {"sequence": "CAATATCG", "PBM E-score": 0.0807},
      {"sequence": "ACGGCAAA", "PBM E-score": -0.0357},
      {"sequence": "AGCCCCCC", "PBM E-score": -0.359},
      {"sequence": "TGCCAACA", "PBM E-score": -0.0698},
      {"sequence": "AGTTAGTG", "PBM E-score": 0.202},
      {"sequence": "AAATAGAT", "PBM E-score": 0.21},
      {"sequence": "TATCGGGA", "PBM E-score": 0.0279},
      {"sequence": "ACTTTTGG", "PBM E-score": 0.0796},
      {"sequence": "AAACCGTG", "PBM E-score": -0.0909},
      {"sequence": "GCCGCATA", "PBM E-score": -0.111},
      {"sequence": "CCGTTACA", "PBM E-score": 0.16},
      {"sequence": "CCTGCAGC", "PBM E-score": -0.133},
      {"sequence": "TATCCATA", "PBM E-score": 0.165},
      {"sequence": "AGGCCCAA", "PBM E-score": -0.0529},
      {"sequence": "CGCCACAG", "PBM E-score": -0.213},
      {"sequence": "TTATAGAA", "PBM E-score": 0.16},
      {"sequence": "AGCAGTCA", "PBM E-score": -0.134},
      {"sequence": "ATTGAAAG", "PBM E-score": 0.231},
      {"sequence": "CCGAAATA", "PBM E-score": 0.289},
      {"sequence": "CCTGTTTC", "PBM E-score": -0.0625},
      {"sequence": "ACATCCCT", "PBM E-score": -0.0504},
      {"sequence": "ATGTCCTA", "PBM E-score": -0.145},
      {"sequence": "TGTAGGAA", "PBM E-score": -0.072},
      {"sequence": "AAGAGCTG", "PBM E-score": -0.215},
      {"sequence": "AGGTTGAA", "PBM E-score": 0.167},
      {"sequence": "CACGTCCC", "PBM E-score": -0.226},
      {"sequence": "AAATACCG", "PBM E-score": 0.184},
      {"sequence": "ATATTTCA", "PBM E-score": 0.17},
      {"sequence": "AACAAGGG", "PBM E-score": -0.138},
      {"sequence": "AAACAAAC", "PBM E-score": 0.165},
      {"sequence": "CGCATCAA", "PBM E-score": 0.168},
      {"sequence": "AAAATGGT", "PBM E-score": 0.282},
      {"sequence": "CTCCCAAA", "PBM E-score": 0.105},
      {"sequence": "AAGATCTG", "PBM E-score": 0.0338},
      {"sequence": "TACGACGA", "PBM E-score": 0.0388},
      {"sequence": "CAAATCAG", "PBM E-score": 0.0435},
      {"sequence": "GGGGCCCA", "PBM E-score": -0.158},
      {"sequence": "CATTCCGA", "PBM E-score": 0.25},
      {"sequence": "CTGATAGC", "PBM E-score": -0.289},
      {"sequence": "GGCTCATA", "PBM E-score": -0.0389},
      {"sequence": "AGCACCTC", "PBM E-score": -0.0401},
      {"sequence": "CCTAAATA", "PBM E-score": 0.0596},
      {"sequence": "ACCCCAAA", "PBM E-score": -0.053},
      {"sequence": "ACTCAACG", "PBM E-score": -0.0818},
      {"sequence": "ATAGGTGG", "PBM E-score": -0.138},
      {"sequence": "ACTTAAGG", "PBM E-score": 0.155},
      {"sequence": "ACGGCGCT", "PBM E-score": -0.182},
      {"sequence": "ATTGACCC", "PBM E-score": 0.0582},
      {"sequence": "GTACGCCA", "PBM E-score": -0.381},
      {"sequence": "ACTAAACG", "PBM E-score": -0.0129},
      {"sequence": "CTGACTAC", "PBM E-score": -0.145},
      {"sequence": "AACGACGA", "PBM E-score": 0.141},
      {"sequence": "GAGAGCTA", "PBM E-score": -0.0936},
      {"sequence": "ACCGTACA", "PBM E-score": 0.0484},
      {"sequence": "GAAGATGA", "PBM E-score": 0.0362},
      {"sequence": "CCCATGAG", "PBM E-score": -0.273},
      {"sequence": "GGAAAGCC", "PBM E-score": 0.0896},
      {"sequence": "ATGAATGA", "PBM E-score": 0.197},
      {"sequence": "TGGTGCAA", "PBM E-score": -0.105},
      {"sequence": "ATTGGCCA", "PBM E-score": -0.0712},
      {"sequence": "GTCCCTTA", "PBM E-score": -0.0537},
      {"sequence": "AACGCGGC", "PBM E-score": -0.15},
      {"sequence": "CCGGACAA", "PBM E-score": 0.283},
      {"sequence": "GACCTCCA", "PBM E-score": -0.021},
      {"sequence": "TCCGGCGA", "PBM E-score": 0.301},
      {"sequence": "GGAGTATA", "PBM E-score": 0.311},
      {"sequence": "GTGATCGA", "PBM E-score": 0.105},
      {"sequence": "CGGTCTTC", "PBM E-score": 0.136},
      {"sequence": "GGGAGGAA", "PBM E-score": -0.0642},
      {"sequence": "TAGCGGCA", "PBM E-score": -0.108},
      {"sequence": "AAACCAGC", "PBM E-score": 0.0797},
      {"sequence": "GAAGTGGA", "PBM E-score": 0.0334},
      {"sequence": "CGATTCCG", "PBM E-score": 0.314},
      {"sequence": "AGCTTACA", "PBM E-score": 0.0901},
      {"sequence": "CTCGTAGA", "PBM E-score": -0.199},
      {"sequence": "AAACTATC", "PBM E-score": 0.123},
      {"sequence": "GGCCAATA", "PBM E-score": 0.0398},
      {"sequence": "ACATCATC", "PBM E-score": 0.0302},
      {"sequence": "CTGGGTGC", "PBM E-score": -0.225},
      {"sequence": "ACCGGCGA", "PBM E-score": -0.0414},
      {"sequence": "ACTGTGAT", "PBM E-score": 0.0339},
      {"sequence": "CATATAGG", "PBM E-score": -0.0616},
      {"sequence": "TACTGACA", "PBM E-score": 0.176},
      {"sequence": "ATAAGCAC", "PBM E-score": 0.0456},
      {"sequence": "CTCTATAA", "PBM E-score": 0.186},
      {"sequence": "GGGGGCGA", "PBM E-score": -0.187},
      {"sequence": "AGTCTCAC", "PBM E-score": -0.0455},
      {"sequence": "CATGAACG", "PBM E-score": -0.213},
      {"sequence": "CTGGCACC", "PBM E-score": -0.227},
      {"sequence": "AATCGATT", "PBM E-score": 0.114},
      {"sequence": "CAGCCACA", "PBM E-score": -0.146},
      {"sequence": "CCCAAGCC", "PBM E-score": -0.219},
      {"sequence": "CTGCGTAC", "PBM E-score": -0.161},
      {"sequence": "TAGGTCCA", "PBM E-score": 0.00796},
      {"sequence": "CCAGATGA", "PBM E-score": -0.216},
      {"sequence": "AATACGTA", "PBM E-score": 0.148},
      {"sequence": "TATCTTAA", "PBM E-score": 0.119},
      {"sequence": "ATTATCAC", "PBM E-score": 0.201},
      {"sequence": "ACACGTGC", "PBM E-score": -0.205},
      {"sequence": "CAACGGTA", "PBM E-score": -0.145},
      {"sequence": "ATAAGGAC", "PBM E-score": -0.0865},
      {"sequence": "ACGGGAGC", "PBM E-score": -0.21},
      {"sequence": "CACAGCAG", "PBM E-score": -0.16},
      {"sequence": "TATCGTAA", "PBM E-score": 0.171},
      {"sequence": "ACCGCGTC", "PBM E-score": -0.14},
      {"sequence": "GGTGATAC", "PBM E-score": -0.161},
      {"sequence": "AAAAGCAG", "PBM E-score": -0.0522},
      {"sequence": "ATTAGCAA", "PBM E-score": 0.138},
      {"sequence": "ACCGCCGC", "PBM E-score": -0.0257}
    ]}
  ]
}
